In article PMC4336329 (PLoS ONE, 2015):
About 14,000 (4.5%) of roughly 310,000 compounds showed an effect of 50% or more. Effects have a minus sign here. This is one part of the list.

biological target: human ether-à-go-go-related gene (hERG) potassium channel (human, UniProt Q12809); test: primary screen, population patch clamp on CHO cells stably expressing hERG
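Further: peak tail current of the secondary pulse compared with the same well before compound.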

Sequence of human ether-à-go-go-related gene (hERG) potassium channel (Q12809 whole entry, looked up): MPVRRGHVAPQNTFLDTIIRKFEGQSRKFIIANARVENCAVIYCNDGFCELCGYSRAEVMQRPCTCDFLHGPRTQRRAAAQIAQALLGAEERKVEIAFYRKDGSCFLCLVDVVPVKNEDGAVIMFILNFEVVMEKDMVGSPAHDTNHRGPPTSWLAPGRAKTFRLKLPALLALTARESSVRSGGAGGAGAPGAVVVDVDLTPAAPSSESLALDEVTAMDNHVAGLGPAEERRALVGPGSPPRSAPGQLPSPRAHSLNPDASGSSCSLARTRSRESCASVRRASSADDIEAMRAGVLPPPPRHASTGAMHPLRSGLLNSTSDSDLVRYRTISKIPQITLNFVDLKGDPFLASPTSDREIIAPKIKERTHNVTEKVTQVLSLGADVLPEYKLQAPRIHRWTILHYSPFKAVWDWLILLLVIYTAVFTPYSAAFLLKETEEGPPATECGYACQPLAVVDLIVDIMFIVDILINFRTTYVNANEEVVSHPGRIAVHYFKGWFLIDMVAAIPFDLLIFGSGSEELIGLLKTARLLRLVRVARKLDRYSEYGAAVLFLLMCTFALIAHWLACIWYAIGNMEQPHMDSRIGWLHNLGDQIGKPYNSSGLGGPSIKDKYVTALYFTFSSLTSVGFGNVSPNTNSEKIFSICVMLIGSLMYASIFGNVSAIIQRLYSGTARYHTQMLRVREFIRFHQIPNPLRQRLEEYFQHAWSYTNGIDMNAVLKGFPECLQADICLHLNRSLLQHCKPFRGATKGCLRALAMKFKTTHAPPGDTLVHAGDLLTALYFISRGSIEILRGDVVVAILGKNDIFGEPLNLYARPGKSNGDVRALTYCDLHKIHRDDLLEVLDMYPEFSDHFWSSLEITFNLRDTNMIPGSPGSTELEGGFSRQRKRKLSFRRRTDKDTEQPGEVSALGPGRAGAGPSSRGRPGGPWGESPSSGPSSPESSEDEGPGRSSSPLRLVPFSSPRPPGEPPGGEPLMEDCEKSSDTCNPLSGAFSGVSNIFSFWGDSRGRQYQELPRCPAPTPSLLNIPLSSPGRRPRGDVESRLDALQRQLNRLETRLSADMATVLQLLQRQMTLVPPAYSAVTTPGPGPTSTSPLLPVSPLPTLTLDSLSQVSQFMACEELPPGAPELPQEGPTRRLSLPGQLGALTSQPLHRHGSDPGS

SMILES	hERG current change (%, negative = inhibition) at 10uM
CC(C)CN(C(=O)c1ccc(N2CCCC2=O)cc1)c1c(N)n(Cc2ccccc2)c(=O)[nH]c1=O	19.6%
CCCC(=O)Nc1c2c(nn1-c1ccc(OC)cc1)CS(=O)C2 (centres unmarked)	18.1%
COc1ccc(C(=O)NC(C)c2nnc(SCC(=O)Nc3nc4ccccc4s3)n2C)cc1 (centres unmarked)	-59.4%
CN(C)c1cc[n+](CC(=O)Nc2c(Cl)cc(Cl)cc2Cl)cc1.[Cl-]	10.5%
S=C(c1ccc2c(c1)OCO2)N1CCCCC1	11.5%
Cc1ccc(SCC(=O)NCc2ccccc2)cc1	2.88%
O=C(CCN1C(=O)C2C3C=CC(C4CC34)C2C1=O)Oc1ccccc1 (centres unmarked)	-43.5%
O=C(C1=NNCC1c1ccccc1)C1OC1c1ccccc1 (centres unmarked)	-1.87%
COC(=O)N/N=C/c1c(C)c(C(=O)c2ccc(F)cc2)n2ccccc12	-14.9%
CCNC(=O)OCc1cn(-c2ccc(Cl)cc2)nn1	17.3%
COc1ccc(CCNc2ccncn2)cc1OC.Cl	4.23%
Cc1ccc(N2C(=O)CC(Sc3cccs3)C2=O)cc1 (centres unmarked)	12%
CCCn1c(=O)[nH]c(=O)c2c1nc(-c1ccc(C(F)(F)F)cc1)n2CCOC	-4.45%
Cc1cccc(NC(=O)c2ccc([N+](=O)[O-])s2)n1	-13.3%
Clc1ccc(Cl)c(OCCN2CCOCC2)c1	-3.47%
CN1CCN(C(=S)c2cn(Cc3ccc(Br)cc3)c3ccccc23)CC1	13.3%
CCC(C)NCCC(=O)Nc1ccc(Cl)c(S(=O)(=O)Nc2ccc(Cl)cc2)c1 (centres unmarked)	-53.6%
Cc1c(N=Cc2ccccn2)c(=O)n(-c2ccccc2)n1C	-9.02%
S=C(Nc1cccc2ccccc12)NN1CCOCC1	4.15%
COC(=O)c1ccc(NC2=C(Cl)C(=O)OC2OC(=O)c2ccccc2)cc1 (centres unmarked)	-22.5%
Cc1c(C(=O)Nc2ccc(-n3cnnn3)cc2)oc2ccccc12	3.71%
CCCCOc1ccc(Cc2n[nH]c(=S)n2N)cc1	16.7%

SMILES	hERG current change (%, negative = inhibition) at 10uM
Cc1ccc(N2CC(C(=O)NCc3ccc(C)n3C)CC2=O)cc1 (centres unmarked)	14.9%
COc1cccc(N2CCN(C(=S)Nc3ccc(C)cc3C)CC2)c1	14%
CC(C)[N+]1=C2C=CC=CC=C2SC12C([N+](=O)[O-])=CC(=[N+]([O-])[O-])C=C2[N+](=O)[O-] (centres unmarked)	8.46%
COc1ccc(-c2noc(=O)n2Cc2ccc(C#N)cc2)cc1	-70.1%
CC(=O)c1sc(N)c(C(=O)OC(C)C)c1C	7.72%
O=C(NCCN1C(=O)S/C(=C\c2ccccc2)C1=O)c1cc(S(=O)(=O)N2CCOCC2)c(Cl)cc1Cl	-14.6%
O=C(CCc1c[nH]c2ccccc12)NC(Cc1ccccc1)C(=O)O (centres unmarked)	27.2%
COc1ccccc1NC(=O)N1CCC(c2nnc(SCC(N)=O)n2C)CC1	19.1%
Cc1cc(C)nc(SCc2ccc(C(=O)NN=C3C4CC5CC(C4)CC3C5)cc2)n1	-16.9%
Cc1ccc(NC(=O)C2CCCCC2)c(O)c1	12.5%
CN(C)c1nc(NCc2ccccc2)nc(SCC(=O)Nc2ccc(Cl)c(Cl)c2)n1	-7.82%
O=C(CSCc1ccc([N+](=O)[O-])cc1)Nc1cccc(C(=O)Nc2ccccc2C(=O)O)c1	24.5%
CCOC(=O)c1cc(C(C)=O)n2ccccc12	-7.93%
O=C(OCC(=O)N1CCc2ccccc21)c1nc(Cl)ccc1Cl	-4.3%
O=C(Nn1cnnc1)c1ccc(F)c(S(=O)(=O)N2CCCCC2)c1	11.3%
COc1ccc(-c2nc(CN3CCN(C(=O)c4ccco4)CC3)c(C)o2)c(F)c1	-13.6%
CC(=O)Nc1cc(NC(C)=O)cc(C(=O)NC(C)(C)C)c1	-1.78%
COC(=O)c1ccc(=O)n(Cc2ccco2)c1	0.244%
COC(=O)C1=C(C)N(c2ccc(OC)cc2)C(C)=C(C(=O)OC)C1c1ccc(OC)cc1	19.1%
COc1ccccc1/C=C/C(=O)OCC(=O)NC1CCCCCC1	-5.97%
CCCOc1ccc(C(=O)N2CCN(Cc3ccc4c(c3)OCO4)CC2)cc1	-67.7%
Cc1c(CC(=O)N[C@@H](C)C(=O)O)c(=O)oc2cc3occ(-c4ccccc4)c3cc12	18.8%

SMILES	hERG current change (%, negative = inhibition) at 10uM
NC(=O)C1CCN(C2OC(=O)c3ccccc32)CC1 (centres unmarked)	-10.7%
CC(NC(=O)C(c1ccccc1)c1ccccc1)c1ccc(S(N)(=O)=O)cc1 (centres unmarked)	6.81%
CN(C)S(=O)(=O)c1ccc(Cl)c(NC(=O)COC(=O)/C=C/c2ccc(S(=O)(=O)N3CCOCC3)cc2)c1	0.0827%
COCCN(C(=O)COC(=O)c1ccccc1Oc1ccccc1)c1c(N)n(Cc2ccccc2)c(=O)[nH]c1=O	-21.6%
CC1SC(=Nc2ccccc2)N(S(=O)(=O)c2ccccc2)C1=O (centres unmarked)	12.3%
COc1ccc(N(CC(=O)N2CCOCC2)S(C)(=O)=O)cc1Cl	-5.97%
CCN1C(=O)[C@@H]2[C@@H](c3ccc(-c4ccc(C(C)=O)cc4)cc3)N3CCCC[C@@]3(C(=O)OC)[C@@H]2C1=O.O=C(O)C(F)(F)F	11.9%
CC(C)/C=N/Nc1nc2c(c(=O)n(C)c(=O)n2C)n1C	9.69%
COc1ccc(/C=N/NC(=O)c2ccc(Cl)c(S(N)(=O)=O)c2)cc1OCC(N)=O	-0.755%
COc1ccc(/C=N/Nc2nc(N3CCCC3)nc(N3CCCC3)n2)cc1O	-46.1%
CCOc1cc(C(=O)NC2=NCCS2)cc(OCC)c1OCC	10.3%
O=C(C1CCN(S(=O)(=O)N2CCOCC2)CC1)N1CCC2(CC1)OCCO2	14.4%
CCCCN(C(=O)c1ccc(-c2ccc(Cl)cc2)o1)c1c(N)n(CC(C)C)c(=O)[nH]c1=O	14.4%
COC(=O)C1=C(C(=O)c2ccc(C)cc2)C(c2ccc(OC)c(OC)c2)n2nnnc2N1 (centres unmarked)	3.59%
Cn1c(Cc2ccccc2)nnc1SCC(=O)Nc1ccccc1	9.54%
O=S(=O)(NCC1CCCO1)c1ccc(S(=O)(=O)N(Cc2ccc(F)cc2)C2CCCCC2)cc1 (centres unmarked)	-2.39%
COc1ccc(CCNC(=O)COc2ccc(C)nc2[N+](=O)[O-])cc1	-13.3%
CC(=O)c1cnc2cc(-c3ccc(Cl)cc3)nn2c1C	0.234%
O=C(CCc1ccccc1)Nc1cc2c3c(c1)CC(=O)N3CCC2	-7.6%
Cn1cc([N+](=O)[O-])c(C(=O)NC2CCCCCC2)n1	14.5%
O=C(O)c1cc(-n2[nH]c(=O)c3ccccc3c2=O)ccc1Cl	21.3%
Cc1ccc(C)c(C(=O)CSc2nc3ccccc3c(=O)[nH]2)c1	19.7%

SMILES	hERG current change (%, negative = inhibition) at 10uM
Cc1cc(C(=O)COC(=O)c2ccccc2Br)c(C)n1CC1CCCO1 (centres unmarked)	-32.6%
COc1ccc(N2CCN(S(=O)(=O)c3ccc4c(c3)NC(=O)C(C)S4)CC2)cc1 (centres unmarked)	6.85%
CCN(CC(=O)Nc1cc(Cl)ccc1C)C(=O)C1CC(=O)N(Cc2ccccc2)C1 (centres unmarked)	-16.1%
Cc1ccc(C)c(N2CCN(S(=O)(=O)c3c(C)[nH]c(C)c3C(=O)N3CCCC3)CC2)c1	-8.25%
COC(=O)[C@H](Cc1ccccc1)NC(=O)N1CCCCCC1	13.5%
C#Cc1ccc([C@H]2C=C(C(=O)O)O[C@@H](OCCCCO)C2)cc1	13.6%
COc1ccc2c(c1)CCC(C)N2C(=O)C(=O)c1c[nH]c2ccccc12 (centres unmarked)	13.8%
O=C(Nc1ccccc1C(=O)OCn1nnc2ccccc2c1=O)c1ccco1	16%
CN1C2CCC1CC(NC(=O)CSc1ccc(C(C)(C)C)cc1)C2 (centres unmarked)	-21.6%
S=C(Nc1cc(Cl)ccc1Cl)Nn1cnnc1	30.8%
Fc1ccc(-c2cc(-c3ccccc3)nc(-n3cccn3)n2)cc1	-4.4%
CC(C)Oc1cccc(NC(=O)c2cnccc2C(F)(F)F)c1	-0.311%
COC(=O)c1c(NC(=O)COC(=O)Cn2cnc3ccccc32)sc2c1CCCC2	13.2%
Cl.c1ccc(CN2C3=NCCCN3c3ccccc32)cc1	-57.5%
O=C(O)C(c1ccccc1)N1C(=O)/C(=C/c2cccs2)SC1=S (centres unmarked)	23.5%
O=C(c1ccc(N2CCN(C(=O)c3ccccc3Br)CC2)cc1)c1cccc(F)c1	8.75%
O=C(NCCC1=CCCCC1)c1cc(S(=O)(=O)N2CCOCC2)ccc1Cl	-3.55%
CC(C)OCCCN1C=C2C(=O)C(C)(OC(=O)CCc3ccccc3)C(=O)C=C2C=C1c1ccc(C#N)cc1 (centres unmarked)	-71.3%
O=C(NCc1ccccc1Cl)c1ccc(CSc2nc3ccncc3[nH]2)cc1	-15.8%
CN(C(=O)COC(=O)CCC(=O)c1ccccc1)c1c(N)n(Cc2ccccc2)c(=O)[nH]c1=O	14.1%
